Source: patent publication US7691969B2, “Isolated GRP94 ligand binding domain polypeptide and nucleic acid encoding same, crystalline form of same, and screening methods employing same” (Duke University, priority 2001, dated 2010)

Biological target: T1, GRP94 (Sus scrofa, UniProt Q29092)
T1 construct: GRP94 was purified from porcine pancreas rough microsomes; from tissue; host or cells: porcine pancreas rough microsomes (lumenal contents)
Assay type: biochemical, porcine
Conditions: bis-ANS treated GRP94; ten-fold molar excess [125I]-VSV8, 30 min 37° C.

T1 sequence (Q29092 22-804): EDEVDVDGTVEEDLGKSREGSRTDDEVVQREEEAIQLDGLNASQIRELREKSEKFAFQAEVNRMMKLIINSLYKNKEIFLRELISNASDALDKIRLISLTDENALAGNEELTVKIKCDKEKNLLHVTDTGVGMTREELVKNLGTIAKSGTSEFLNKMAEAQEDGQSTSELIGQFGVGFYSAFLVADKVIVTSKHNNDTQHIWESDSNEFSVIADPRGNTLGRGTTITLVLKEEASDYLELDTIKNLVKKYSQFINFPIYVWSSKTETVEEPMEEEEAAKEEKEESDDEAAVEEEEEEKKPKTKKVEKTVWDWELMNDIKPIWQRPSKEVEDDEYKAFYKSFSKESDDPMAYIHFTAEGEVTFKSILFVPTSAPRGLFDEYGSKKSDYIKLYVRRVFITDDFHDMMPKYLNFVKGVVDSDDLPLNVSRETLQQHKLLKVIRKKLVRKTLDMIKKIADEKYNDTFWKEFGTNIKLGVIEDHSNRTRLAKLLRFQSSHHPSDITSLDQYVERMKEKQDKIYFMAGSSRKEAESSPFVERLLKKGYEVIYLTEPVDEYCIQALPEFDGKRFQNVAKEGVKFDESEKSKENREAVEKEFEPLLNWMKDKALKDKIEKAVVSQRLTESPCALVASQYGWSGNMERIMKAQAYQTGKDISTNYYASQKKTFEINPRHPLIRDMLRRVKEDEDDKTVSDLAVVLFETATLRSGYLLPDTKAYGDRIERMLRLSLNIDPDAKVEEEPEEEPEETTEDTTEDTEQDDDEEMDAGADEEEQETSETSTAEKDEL

## 4,4′-dianilino-1,1-binaphthyl-5,5-disulfonic acid [bis-ANS]
  stimulation of GRP94 peptide binding activity: approximately a four to five-fold stimulation over native protein
